In all, about 94,000 compounds went through this assay and about 6,200 (6.6%) were called active. The inconclusive results got no clear call from the source; some entries with a clear call stand among them for comparison. Calls follow the shape of the dose curve; as a rule, active = well fitted inhibition curve with a large enough effect; inconclusive = small, poorly fitted or top-dose-only effect; inactive = flat fitted curve, though single readings scatter. A potency beside an inconclusive call is a rough fit, not a confirmed value.
Assay: Cytotoxic Profiling in HEK 293 Cell Line of Diverse Libraries Using Quantitative High-Throughput Screening; also: nearly all actives have a fitted effect of over 60% in size
Conditions: HEK 293 viability, ATP luminescence (CellTiter-Glo), 48-72 h; series mostly up to 115 µM
Procedure, shortened: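 Cells seeded first (HEK 293, 250 cells/well), then compound added by pintool. Incubation ran 48 or 72 hr at 37 degree Celsius. CellTiter-Glo was added and luminescence imaged after 10 min at room temperature.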
Potency is read from the fitted curve at half-maximal effect; tags tell the direction and shape of the fitted curve.

Structure (SMILES) | Potency
CCCc1noc(-c2cn(C3CCN(C(=O)c4cc(F)cc(F)c4)CC3)nn2)n1 | inconclusive: 89.1 µM [inhibitor, single point]
COc1ccc(CN2C(=O)COC[C@H]2C(=O)Nc2ccc(OC)c(C(F)(F)F)c2)cc1 | active: 44.7 µM
Cc1ncc(S(C)(=O)=O)c(NCCCNc2cccnc2)n1 | inactive
O=C1Nc2ccccc2C12CN(Cc1ccsc1)C2 | inactive
CCNC(=O)Cc1ccc(N(Cc2ccc(F)cc2)C(=O)c2ccco2)cc1 | inactive
CCCN1C(=O)Cc2cc(C(=O)NCc3ccccc3F)ccc21 | inconclusive: 79.4 µM [inhibitor, partial curve, poor fit]
O=C(c1ccoc1)N1CCC(c2nc(-c3ccccc3)no2)C1 (configuration not stated) | inconclusive: 89.1 µM [inhibitor, partial curve, poor fit]
O=c1[nH]c(N2CCOCC2)nc2c1CCN(Cc1ccccc1F)CC2 | inconclusive: 89.1 µM [inhibitor, single point]
COc1ccc(C(=O)N2CCC3(CC2)NC(=O)N(c2ccccc2)N3)cc1OC | inconclusive: 35.5 µM [inhibitor, partial curve]
CNC(=O)CCC1CCN(C(=O)c2ccccc2F)CC1 | inactive
CCCc1nc(NCC(c2ccccn2)N2CCOCC2)c2cnn(C)c2n1 (configuration not stated) | inactive
COCC(=O)N(C)Cc1ccc(-c2ccccc2)cc1 | inconclusive: 112 µM [inhibitor, partial curve]
CN(C)c1ccc(-c2ccnc(N[C@H]3CO[C@H]4[C@@H]3OC[C@H]4OC(=O)Nc3cccc(C#N)c3)n2)cc1 | active: 14.1 µM
CN1CC(=O)N(c2ccc(Cl)cc2)Cc2c1ncnc2N1CCC(O)CC1 | inactive
COCCCn1c(=O)c(C(=O)NCc2ccc(C(F)(F)F)cc2)nc2cccnc21 | inconclusive: 79.4 µM [inhibitor, partial curve, poor fit]
COc1cccc(C(=O)N2CCC(C(=O)N3CCC(N4CCOC4=O)CC3)CC2)c1 | inactive
CC(C)c1noc(CC2CCN(C(=O)c3cccc(N(C)C)c3)CC2)n1 | inconclusive: 50.1 µM [inhibitor, partial curve, poor fit]
COCCCNC(=O)CC(c1ccc(Cl)cc1)c1c[nH]c2ccccc12 (configuration not stated) | inconclusive: 44.7 µM [inhibitor, partial curve, poor fit]
C=CCOc1cccc(-c2nnc(CCC(=O)NCc3ccc4c(c3)OCO4)c(=O)[nH]2)c1 | inconclusive: 50.1 µM [inhibitor, partial curve, poor fit]
COc1ccc(-c2cn3cc(C(=O)N4CCOCC4)nc3s2)cc1 | active: 63.1 µM
CN(c1ccccc1)c1ccc2nnc(-c3cc(C(=O)N4CCCCC4)ccn3)n2n1 | inconclusive: 89.1 µM [inhibitor, partial curve, poor fit]
CCn1nc(CC(C)C)cc1C(=O)NCc1cc(-c2cccc(F)c2)no1 | inconclusive: 89.1 µM [inhibitor, single point]
COc1cc(OC)cc(C(=O)N2CCC(n3cc(-c4nc(-c5ccccc5)no4)nn3)C2)c1 (configuration not stated) | inconclusive: 39.8 µM [inhibitor, full curve, poor fit]

Structure (SMILES) | Potency
Cc1ccc(S(=O)(=O)N2CCC(CC(=O)NCc3ccccc3)C2)c(C)c1 (configuration not stated) | inconclusive: 89.1 µM [inhibitor, single point]
CN(C)c1nc(N)nc(CNC(=O)c2csc(Cc3ccccc3)n2)n1 | inconclusive: 89.1 µM [inhibitor, single point]
COc1ccc(NC(=O)Cn2c(=O)c(-c3noc(C)n3)c3n(c2=O)CCCC3)cc1Cl | inactive
Cc1noc(-c2ccc(OC(F)(F)F)cc2)c1C(=O)NC(C)CCc1ccccc1 (configuration not stated) | inconclusive: 39.8 µM [inhibitor, full curve, poor fit]
O=C1CCC2(CCCO2)CCN1Cc1cccc(F)c1 (configuration not stated) | inactive
Clc1ccc(-c2nnc([C@H]3CCN(C4CCCCC4)C3)o2)cc1 | inconclusive: 112 µM [inhibitor, partial curve, poor fit]
O=C(c1cc(-c2ccccc2F)n[nH]1)N1CCC2(CCCN(Cc3ccccc3F)C2)C1 (configuration not stated) | inconclusive: 70.8 µM [inhibitor, partial curve, poor fit]
O=C(NC1CCN(c2cc(-c3cccs3)[nH]n2)C1)c1ccccc1Cl (configuration not stated) | inconclusive: 50.1 µM [inhibitor, partial curve, poor fit]
COc1ccc(/C=C/c2ccc3c(c2)C(=O)N2CC[C@H](N)[C@H]2C(=O)N3)cc1 | active: 100 µM
Cc1cccc(OCC(=O)N2CCCC(n3cc(-c4nc(C5CC5)no4)nn3)C2)c1 (configuration not stated) | inactive
O=C1CCN(Cc2cccc(F)c2)CCCC(CO)CCN1 (configuration not stated) | inactive
Cc1noc2c(-c3ccc(N4CCOCC4)cc3)cc(-c3cccnc3)nc12 | inconclusive: 44.7 µM [inhibitor, full curve, poor fit]
Cc1cnc(C2CCN(Cc3ccccc3)C2)n1Cc1ccccc1 (configuration not stated) | inconclusive: 79.4 µM [inhibitor, partial curve, poor fit]
CC(C)(C)NC(=O)Cn1ccn2nc(-c3ccc(F)cc3)c(CO)c2c1=O | inactive
C[C@@]12CO[C@@H](CNC(=O)C3CCCC3)O[C@@H]1CC[C@]1(C)[C@@H]2CC[C@@H](O)[C@H]1CC(=O)NCc1ccccc1 | inactive
COc1cccc(C(=O)N2CCC(C(NC(=O)c3ccccc3)C(=O)NCc3ccco3)CC2)c1 (configuration not stated) | inconclusive: 44.7 µM [inhibitor, partial curve, poor fit]
CCOc1ccc(C(=O)N2CCC[C@H]2c2nc(-c3ccccc3)no2)cc1OCC | inactive
O=C(O)c1ccc(CN2Cc3[nH]cnc3C[C@H]2c2nc(-c3ccc(F)cc3)no2)cc1 | inactive
Cc1ccc(-c2nnc3ccc(NCc4cccc(F)c4)nn23)nc1 | inconclusive: 112 µM [inhibitor, partial curve, poor fit]
Fc1ccccc1OCCC1CCNC1 (configuration not stated) | inconclusive: 31.6 µM [inhibitor, partial curve, poor fit]
Cc1nn(-c2ccc(F)cc2)c(C)c1[C@@H]1C=C[C@@H](NCc2ccc(C(C)C)cc2)C1 | active: 11.2 µM
O=C(Nc1ccc(F)cc1)Nc1cccc(-c2ccc(N3CCOCC3)nn2)c1 | inconclusive: 50.1 µM [inhibitor, partial curve, poor fit]
COC(=O)[C@H](NC(=O)C1=C[C@@H](NS(=O)(=O)c2cccc(C(F)(F)F)c2)[C@@H](O)[C@H](O)C1)C(C)C | inconclusive: 89.1 µM [inhibitor, single point]

Structure (SMILES) | Potency
CCCn1c(C)c(CC(=O)N(C)Cc2cccnc2)c2c1CC(C)(C)CC2=O | inactive
Cn1ncc2c(C(=O)NCCc3ccc(Cl)cc3)cc(-c3ccc(Cl)cc3Cl)nc21 | inconclusive: 50.1 µM [inhibitor, partial curve, poor fit]
COc1ccc(NC(=O)Cn2c(N(C)Cc3ccccc3)nc(C)cc2=O)cc1 | active: 44.7 µM
Cn1ccc2c(C(=O)NCc3cccnc3)nc(-c3cccc(O)c3)cc21 | inconclusive: 70.8 µM [inhibitor, partial curve, poor fit]
C[C@@H]1CN(c2cc(C3CC3)ncn2)C[C@@]1(O)C1CCC1 | inconclusive: 25.1 µM [inhibitor, full curve, poor fit]
COc1ccc(F)cc1-c1ccc(CN2CCCCC2C(=O)NCCc2ccccn2)cc1 (configuration not stated) | inconclusive: 89.1 µM [inhibitor, single point]
COCCN1CCCCC(CC(=O)Nc2ccc(OC)c(OC)c2)C1=O (configuration not stated) | inactive
Cc1ccccc1-c1nc(N2CCOCC2)cc2c1CN(Cc1ccccc1)C2=O | active: 50.1 µM
O=C(c1ccc(Cl)cc1)N1CCC2(CC1)CC(=O)N(c1ccccc1)c1ccccc1O2 | inconclusive: 70.8 µM [inhibitor, partial curve, poor fit]
Cc1ccc(-c2noc([C@@H]3Cc4nc[nH]c4CN3C(=O)Nc3ccc(Cl)cc3)n2)cc1 | inconclusive: 89.1 µM [inhibitor, partial curve, poor fit]
CC(=O)N(C1CC1)C1CCOC2(CCN(C(=O)c3n[nH]c4ccccc34)CC2)C1 (configuration not stated) | inactive
CCOc1ccc(C(=O)NC2CCN(c3cnn(CC4CC4)c(=O)c3)CC2)cc1 | inactive
Cc1noc(-c2ccc(OC3CN(C(=O)Cc4ccccc4)C3)cc2)n1 | inconclusive: 35.5 µM [inhibitor, partial curve, poor fit]
COc1ccc(-c2noc(-c3cccn3CC(=O)Nc3ccc(NC(C)=O)cc3)n2)cc1F | inactive
O=C1C[C@@H]2CCN(Cc3ccccc3)C[C@@H]2CCN1C1CCCCC1 | inactive
CC(C)(C)CNCC1(O)CCCN(Cc2cccc(F)c2F)C1=O (configuration not stated) | inconclusive: 15.8 µM [inhibitor, full curve]
Cc1noc2c(NCCN(C)C)cc(-c3ccc(Cl)cc3)nc12 | active: 44.7 µM
O=C(NCc1cccc(Cl)c1)c1nc2cccnc2n(CCc2ccccc2)c1=O | active: 35.5 µM
O=c1cc(-c2ccccn2)oc2c(-c3cccc(CO)c3)nccc12 | inconclusive: 126 µM [inhibitor, partial curve, poor fit]
COc1ccc(-c2nn(-c3ccccc3)cc2CN2CCCC(CO)C2)c(F)c1 (configuration not stated) | inconclusive: 89.1 µM [inhibitor, partial curve, poor fit]
CS(=O)(=O)N1CCNC[C@@H]1C(=O)N[C@@H](CC1CCCCC1)C(N)=O | inactive
